Measurements: PubChem BioAssay AID743279 (National Center for Advancing Translational Sciences (NCATS), 2014)
The whole screen tested about 360,000 compounds, of which about 17,000 (4.7%) were called active. The inconclusive results got no clear call from the source; some entries with a clear call stand among them for comparison. Cut-off read from the data, not from the text of the source: active = activity change below about -50%; inconclusive = mostly about -30% to -49%; inactive = weaker than that.

assay: qHTS for Inhibitors of Inflammasome Signaling: IL-1-beta AlphaLISA Primary Screen; details: THP-1 LPS/ATP IL-1B secretion, 16 h; at 57.5 µM, active compounds read low
How it was run: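 THP-1 cells pretreated 1 hr with compounds (up to 57.5 uM final), then stimulated with LPS (250 ng/mL final) plus ATP (1.25 mM final); secreted IL-1B measured by AlphaLISA after 16 hr, decreased signal indicating inhibition.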
% is set by controls: 0 for no effect and ±100 for the full control effect.

**Q.** Which activity change does the source give for `NC(Cc1ccc(Cl)cc1)c1csc(NC(=O)Nc2ccccc2-c2ccccc2)n1` (stereo unspecified) here?
**A.** inconclusive: -42.1%

**Q.** For `O=C(c1nc(-c2ccccc2)n(-c2ccccc2)n1)N1CCN(S(=O)(=O)c2ccccc2)CC1`, which activity change is on record?
**A.** inactive: -28.7%

**Q.** With `CCCCCn1c(=O)[nH]c2cc(C(=O)NCCCN3CCCCC3C)ccc2c1=O` (stereo unspecified) as the compound, how does the activity change read?
**A.** inconclusive: -37.4%

**Q.** For `CCC(C(=O)NC1CCCCC1)N(C(=O)c1snc(C(N)=O)c1N)c1ccc(OC)cc1OC` (stereo unspecified), which activity change is on record?
**A.** inconclusive: -43.8%

**Q.** With `O=C1/C(=C/c2ccc(O)cc2)CCc2ccc([N+](=O)[O-])cc21` as the compound, how does the activity change read?
**A.** inconclusive: -43.6%

**Q.** For `COC(=O)N/N=C(\C)c1ccccc1OC(F)F`, which activity change is on record?
**A.** inactive: -3.17%

**Q.** With `Cc1ccc(SCCC(=O)OCC(=O)Nc2ccc(C(N)=O)cc2)cc1` as the compound, how does the activity change read?
**A.** inactive: 20.2%

**Q.** For `Cc1ccc2c(c1)C(=C(C#N)C#N)C(=O)N2CCN1CCOCC1`, which activity change is on record?
**A.** inactive: 13%

**Q.** Which activity change does the source give for `CC1=C(C(=O)N(C(C)C)C(C)C)CC(CC(=O)NCC2CCCCC2)C(=O)N1Cc1ccc(F)cc1` (stereo unspecified) here?
**A.** inconclusive: -37.2%

**Q.** Which activity change does the source give for `Cc1sc2ccc3sccc3c2[n+]1C` here?
**A.** active: -95.1%

**Q.** For `COc1cccc(CNC(=O)CCCn2nc(C)n3c(cc4sccc43)c2=O)c1`, which activity change is on record?
**A.** inconclusive: -40.3%

**Q.** With `C/C(=N\NC(=S)Nc1ccccc1C)c1cc2ccccc2o1` as the compound, how does the activity change read?
**A.** inactive: 4.31%

**Q.** With `CCN1C(=O)[C@H]2[C@@H](c3ccc(-c4ccc(F)cc4)c(OC)c3)N[C@@](Cc3ccccc3)(C(=O)OC)[C@H]2C1=O` as the compound, how does the activity change read?
**A.** active: -61.8%

**Q.** With `Cc1onc(-c2ccccc2)c1C(=O)Nc1ccc(N2CCOCC2)cc1` as the compound, how does the activity change read?
**A.** inconclusive: -34.6%

**Q.** For `COc1ccc(N=Nc2nc(-c3ccccc3)c(-c3ccccc3)[nH]2)cc1`, which activity change is on record?
**A.** inconclusive: -42.2%

**Q.** For `CCOc1ccc(-c2nnc(-c3ccco3)o2)cc1OCC`, which activity change is on record?
**A.** inconclusive: -31.8%

**Q.** Which activity change does the source give for `CCN(CC)c1ccc(S(=O)(=O)N2CCCCC2)cc1NC(=O)CSCc1c(C)noc1C` here?
**A.** inconclusive: -42.2%

**Q.** With `CCOc1ccc(C(C)=O)cc1COC(=O)c1ccccc1C(=O)N(C)Cc1ccccc1` as the compound, how does the activity change read?
**A.** inconclusive: -30.8%

**Q.** For `CCCN(CCC)CCNC(=O)CCC(=O)Nc1ccc2nc(N3CCOCC3)cc(C)c2c1`, which activity change is on record?
**A.** inactive: -15.7%

**Q.** Which activity change does the source give for `O=C1CC(c2ccco2)CC2=C1C1c3ccccc3C(=O)N1c1ccccc1N2` (stereo unspecified) here?
**A.** active: -94.2%

**Q.** With `O=C(c1cccs1)N1CCN(c2ncc(C(F)(F)F)cc2Cl)CC1` as the compound, how does the activity change read?
**A.** inactive: -10.3%

**Q.** Which activity change does the source give for `COc1ccc(Cl)cc1NC(=O)CCCC(=O)c1ccccc1` here?
**A.** inconclusive: -39.4%

**Q.** Which activity change does the source give for `CC(=O)Nc1ccc(S(=O)(=O)Nc2nc3ccc(C)cc3s2)cc1` here?
**A.** inactive: 24.9%

**Q.** For `Cc1ccc(OCC(=O)Nc2c(C)nn(-c3ccccc3)c2C)c(Br)c1`, which activity change is on record?
**A.** inconclusive: -32.6%

**Q.** For `CCN1CCN(c2cc(C(C)(C)C)nc3c(-c4ccccc4)c(C)nn23)CC1`, which activity change is on record?
**A.** inconclusive: -30.8%

**Q.** For `O=[N+]([O-])c1ccc2nc(NN=Cc3ccc(O)cc3)sc2c1`, which activity change is on record?
**A.** active: -95.5%

**Q.** For `CCCCC/C=C/C1=CC(=O)C[C@H](c2ccc(Cl)cc2)C1`, which activity change is on record?
**A.** inconclusive: -33.6%

**Q.** Which activity change does the source give for `Cc1ccc(NC(=O)COC(=O)Cn2cnc3c2c(=O)n(C)c(=O)n3C)c(Cl)c1` here?
**A.** inactive: -3.63%

**Q.** With `CCCCN1C(=O)C2Cc3c([nH]c4ccccc34)CN2C1=S` (stereo unspecified) as the compound, how does the activity change read?
**A.** active: -88.4%

**Q.** With `CCCCCCN(C(=O)CCl)c1ccccc1` as the compound, how does the activity change read?
**A.** active: -66.5%

**Q.** For `COc1ccc(NS(=O)(=O)c2cccc(C(=O)NCC(c3ccc(OC)cc3)N3CCCC3)c2)cc1` (stereo unspecified), which activity change is on record?
**A.** inconclusive: -34.9%

**Q.** Which activity change does the source give for `CCOC(=O)c1cnc(-c2ccccc2)nc1N1CCOCC1` here?
**A.** inactive: 0%

**Q.** With `C[C@@H]1CN([C@H](C)CO)C(=O)c2c(c3ccccc3n2C)-c2ccccc2CO[C@H]1CN(C)Cc1ccccc1` as the compound, how does the activity change read?
**A.** inconclusive: -45.6%

**Q.** For `NC(=O)c1ccccc1NC(=O)c1ccc2ccccc2c1`, which activity change is on record?
**A.** inactive: -12.1%

**Q.** For `O=c1cc(-c2ccccc2)oc2ccccc12`, which activity change is on record?
**A.** inactive: 10.3%

**Q.** With `FC(F)(F)c1cnc(Sc2nc3nccc(-c4ccc(Cl)cc4)n3n2)c(Cl)c1` as the compound, how does the activity change read?
**A.** inconclusive: -36.3%

**Q.** With `CC1(C)CC(NC(=O)COc2ccc(Cl)cc2Cl)CC(C)(C)N1` as the compound, how does the activity change read?
**A.** inconclusive: -40.3%

**Q.** Which activity change does the source give for `COc1ccc(CCNCC(O)COc2c(C)cccc2C)cc1OC` (stereo unspecified) here?
**A.** active: -67.1%

**Q.** With `CCCc1[nH]nc2c1C(c1cc(OC)ccc1F)C(C#N)=C(N)O2` (stereo unspecified) as the compound, how does the activity change read?
**A.** inconclusive: -36.9%

**Q.** Which activity change does the source give for `O=C(Nc1ccc(F)c(Cl)c1)NC1CC1` here?
**A.** inconclusive: -42.5%

**Q.** With `O=C1C=CC(=O)N1c1cccc(-c2ccccc2)c1` as the compound, how does the activity change read?
**A.** active: -65%

**Q.** With `Cc1cc(C)nc(SCc2nc3ccccc3n2C)n1` as the compound, how does the activity change read?
**A.** inconclusive: -43.3%

**Q.** With `CC(C)(C)c1ccc(NC(=O)c2ccsc2)cc1` as the compound, how does the activity change read?
**A.** inconclusive: -49.1%

**Q.** With `COc1ccccc1NC(=O)c1ccccc1NC(=O)c1ccccc1C(=O)O` as the compound, how does the activity change read?
**A.** inactive: -4.71%

**Q.** With `O=C1NCCN/C1=C\C(=O)c1cccc(Br)c1` as the compound, how does the activity change read?
**A.** inconclusive: -35.6%

**Q.** With `COc1cc(/C=C/C(=O)OCC(=O)N2CCC(Cc3ccccc3)CC2)ccc1O` as the compound, how does the activity change read?
**A.** active: -69.8%

**Q.** For `COCCn1c(N)c(C(=O)NCc2cccs2)c2nc3ccccc3nc21`, which activity change is on record?
**A.** inconclusive: -34.1%

**Q.** Which activity change does the source give for `Cc1ccc(/C=N/NC(=O)c2csc3c2CCCC3)cc1` here?
**A.** inactive: 0.564%

**Q.** With `Cc1ccc2c(C(=O)N3CCN(c4ccccc4)CC3)cc(-c3cccnc3)nc2c1C` as the compound, how does the activity change read?
**A.** active: -63.6%

**Q.** For `COc1cccc(C(C(=O)Nc2ccc(F)cc2)N(C(=O)Cn2nnc3ccccc32)C2CC2)c1` (stereo unspecified), which activity change is on record?
**A.** inconclusive: -46.5%

**Q.** With `Cc1ccc(/C=C/c2nc3ccccc3c(=O)n2CCc2ccccc2)cc1` as the compound, how does the activity change read?
**A.** inactive: -19.7%

**Q.** Which activity change does the source give for `O=C(O)CN1C(=O)COc2ccc(S(=O)(=O)N3CCCCCC3)cc21` here?
**A.** inactive: 13.9%

**Q.** With `Cc1ccc(C(=O)OCC(=O)NCc2cc(C)c(O)c(C)c2)cc1S(=O)(=O)N1CCCCC1` as the compound, how does the activity change read?
**A.** inconclusive: -46%

**Q.** With `O=C(NC1CCCCC1)C(c1ccc2ncccc2c1)N(Cc1ccc2c(c1)OCO2)C(=O)c1cccs1` (stereo unspecified) as the compound, how does the activity change read?
**A.** active: -69.2%

**Q.** For `CSCC[C@H](NC(=O)C1CCN(S(=O)(=O)c2ccc(C)cc2C)CC1)c1nc2ccccc2[nH]1`, which activity change is on record?
**A.** inconclusive: -45.4%

**Q.** With `CC(C)(C)C(c1nc2ccccc2[nH]1)n1c(-c2ccsc2)nc2ccccc21` (stereo unspecified) as the compound, how does the activity change read?
**A.** active: -52.6%
